According to the supplement of paper PMC10126150:
Values marked as one replicate rest on one cluster of the flow cell; about a third of the high ones do not repeat.

System: ATP
Assay: switch fluorescence ratio, 500 uM ATP over buffer (Cy3 cluster intensity, sum of 5 cycles each) (fold (ratio)); higher = stronger signal-on switching upon ATP binding; sequences stand for … in TCGTCGGCAGCGTCAGATGTGTATAAGAGACAGTTTTTTTTTTTTTTTTTTTTTTTTT…TC
Details: aptamer strand: ATP DNA aptamer (quencher-CACCTGGGGGAGTATTGCGGAGGAAGG + anchor), 100 nM annealed; ATP concentration: 500 uM; one replicate
Summary of the method: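 Imaging in selection buffer was followed by imaging after 15 min with 500 uM ATP at 22 °C, for Cy3-labelled switching-strand clusters annealed to 100 nM quencher-labelled ATP aptamer on a modified Illumina MiSeq flow-cell. Five of these buffer/ATP cycles ran, separated by NaOH stripping and re-annealing. The fluorescence ratio per cluster is summed target-cycle over summed buffer-cycle Cy3 intensity, averaged per switch-domain sequence; clusters outside 100-1000 RFU were removed.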
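Note: ATP exposure 15 min at 22 °C before imaging.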

GCTAAGGGTT
switch fluorescence ratio: 0.987

CCCAGACGGT
switch fluorescence ratio: 1.05

AGCAGGCAGC
switch fluorescence ratio: 0.995

TCAGGGCTTA
switch fluorescence ratio: 0.998

CTTATGGATA
switch fluorescence ratio: 1.05

GTATTCCGGT
switch fluorescence ratio: 1.02

TAAATATGGA
switch fluorescence ratio: 0.975

TAGGGATGTC
switch fluorescence ratio: 1.01

AAAAGATCCT
switch fluorescence ratio: 1.19

TTCAGTATTG
switch fluorescence ratio: 1.05

TGTGGAAGCA
switch fluorescence ratio: 1.02

GGTCAAATTC
switch fluorescence ratio: 1.01

CATGAGGGTT
switch fluorescence ratio: 0.999

TGTTCGCTGT
switch fluorescence ratio: 1.05

CTGCCAAAAG
switch fluorescence ratio: 1.07

CATCAGTCAG
switch fluorescence ratio: 1.1

CCTGTTTGA
switch fluorescence ratio: 0.989

TTGGCGAAAT
switch fluorescence ratio: 1.07

CGGTATCGGG
switch fluorescence ratio: 0.994

CGGGATGTGG
switch fluorescence ratio: 1.05

CAGAGCTAGA
switch fluorescence ratio: 0.992

CGAGGGGTCT
switch fluorescence ratio: 0.969

GGTCTATGGA
switch fluorescence ratio: 0.956

ATTGCCATTT
switch fluorescence ratio: 1.24

AAGAGGGG
switch fluorescence ratio: 0.999

ATACTCGCAT
switch fluorescence ratio: 1.29

ACTGGGCAGT
switch fluorescence ratio: 1.04

GCAACACCTT
switch fluorescence ratio: 1.15

TCATGCAGTC
switch fluorescence ratio: 0.981

CTGATTGCGC
switch fluorescence ratio: 1.07

TAATTAGCAA
switch fluorescence ratio: 1.89

GCAAACTGCT
switch fluorescence ratio: 1

GTAGGCCAGC
switch fluorescence ratio: 1.01

GAGTTTCCGC
switch fluorescence ratio: 1.02

AGGACCTTCC
switch fluorescence ratio: 3.47

AAGGGCGGTA
switch fluorescence ratio: 0.976

AACCGTGCGC
switch fluorescence ratio: 1.18

GGGATTCTTT
switch fluorescence ratio: 1.04

ATGATATCAC
switch fluorescence ratio: 0.978

AATTCATAGG
switch fluorescence ratio: 1.01

AGGAAGGATG
switch fluorescence ratio: 1

GAGCTTGGT
switch fluorescence ratio: 0.97

TCGCCATGCC
switch fluorescence ratio: 1

AATACGCCGG
switch fluorescence ratio: 0.97

GACTCCATAT
switch fluorescence ratio: 1.25

CAGAAAATGC
switch fluorescence ratio: 1.03

TTGGTGGCAC
switch fluorescence ratio: 1.03

ACTGGGAGAT
switch fluorescence ratio: 1.02

TTTAACATCG
switch fluorescence ratio: 1.03

ATAAACTCTG
switch fluorescence ratio: 1.05

GGGTTACATC
switch fluorescence ratio: 0.997

CTCTTATTTC
switch fluorescence ratio: 1.1

CTTTCCTCAC
switch fluorescence ratio: 1.92

ATGAAGTGCG
switch fluorescence ratio: 1.03

TACCTTGTGG
switch fluorescence ratio: 1.07

GTTTAGGTAA
switch fluorescence ratio: 0.97

GTTGAAATTT
switch fluorescence ratio: 1.02

GAGAATCCA
switch fluorescence ratio: 1.03

CGCAAATGGA
switch fluorescence ratio: 1.28

AAATTAAGTT
switch fluorescence ratio: 0.991

TTTCCGGCCC
switch fluorescence ratio: 1.11

TTAAACGCGA
switch fluorescence ratio: 1.31

GGCACGAGCG
switch fluorescence ratio: 1.03

TCTTTCGGAT
switch fluorescence ratio: 0.98

AAATTATTGC
switch fluorescence ratio: 0.976

CCAAGGCCTG
switch fluorescence ratio: 1.02

TTCTCATAGA
switch fluorescence ratio: 1.02

AACCCCAAAT
switch fluorescence ratio: 1.02

CTGACTCCCT
switch fluorescence ratio: 2.52

CTCGTCTAGG
switch fluorescence ratio: 1.13

CCTGCGTACG
switch fluorescence ratio: 1.3

GCTTCAATCG
switch fluorescence ratio: 1.04

AGGGTATGCT
switch fluorescence ratio: 1.02

ATGTTGTAA
switch fluorescence ratio: 0.997

CTAGAAGGA
switch fluorescence ratio: 1.05

TCGGAAAAGG
switch fluorescence ratio: 0.962

ATCCACTAGA
switch fluorescence ratio: 1.05

GGCTCACCT
switch fluorescence ratio: 1.13

CTGCCGCAGA
switch fluorescence ratio: 2.82

AACGTGGCTC
switch fluorescence ratio: 0.975

TACACTAGTC
switch fluorescence ratio: 0.94

GGTTCTACAA
switch fluorescence ratio: 1.01

GCGAAGTCGA
switch fluorescence ratio: 1.04

ATTCGTTAT
switch fluorescence ratio: 1.03

CTACTTCGCG
switch fluorescence ratio: 1.09
